These results are taken from PubChem BioAssay AID1508623 (National Center for Advancing Translational Sciences (NCATS), 2021).

The structures appear in SMILES notation. Screen size: about 48,000 compounds; about 450 (0.94%) were called active. About 19% were inconclusive and are not listed. The call rests on the fitted dose curve; in most records, active means well fitted inhibition curve with a large enough effect; inconclusive means small, poorly fitted or top-dose-only effect; inactive means no such curve, though single readings can be large or run the other way. The list shows a part of the results.

This assay in a line: Primary qHTS for Identification of Small Molecule Inhibitors of Huntingtin Promoter Activity. Further: nearly all actives have a fitted effect of over 50% in size. The following applies: HEK293 HTT promoter firefly luciferase reporter (activity 0% = vehicle and -100% = no light), 24 h; series mostly up to 57.5 µM; activity change, negative = inhibition: at the top concentration. The method in brief: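 Quantitative HTS used concentration series of up to 57.5 uM final on HEK293 luciferase reporter cells, 24 h at 37 degrees C. Readout was Dual-Glo firefly luminescence.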
On to `Cc1cccc(CNC(=O)c2ccc3c(c2)N(C)C(=O)C2CCCCN32)c1` (centres undefined), for which the “activity change, negative = inhibition” value was inactive: -1.55%.

As for `Cc1nn(C)c(C)c1S(=O)(=O)N(CC(=O)N1CCN(c2ccccc2)CC1)c1ccc(C(C)C)cc1`, the “activity change, negative = inhibition” value is inactive: 1.58%.

For the compound `CCOc1ccccc1NC(=O)C1CCN(S(=O)(=O)c2ccc3[nH]c4c(c3c2)CCCCC4)CC1`, the “activity change, negative = inhibition” value is inactive: -27.5%.

With `O=C(CCn1c(=O)c2cccn2c2ccccc21)Nc1ccc(F)cc1`, the “activity change, negative = inhibition” value is inactive: -9.25%.

Turning to `CCCCCNC(=O)c1ccc2c(c1)nc(C)n2-c1cccc(C)c1`, the “activity change, negative = inhibition” value is inactive: 2.46%.

In the case of `Cc1cc(C)n(-c2nnc(Nc3cc(Cl)ccc3C)c3ccccc23)n1`, the “activity change, negative = inhibition” value was inactive: -22.7%.

With `COc1ccccc1NC(=O)c1cc2c([nH]c1=O)CC(C)(C)CC2=O`, the “activity change, negative = inhibition” value is inactive: 11.5%.

Regarding `COc1ccc(NC(=O)c2sc3nc4c(cc3c2N)CCCCCC4)cc1OC`, the “activity change, negative = inhibition” value was inactive: -30.8%.

For `Fc1ccc(Cc2cn3cc(-c4ccc(Cl)cc4)nc3s2)cc1`, the “activity change, negative = inhibition” value is inactive: 19.7%.

As to `CCC1CCCCN1CCCNC(=O)c1cc2c(=O)n(CC)c3ccccc3c2s1` (centres undefined), the “activity change, negative = inhibition” value is inactive: -1.05%.

Turning to `COc1ccc(CNC(=O)C2CCN(S(=O)(=O)c3ccc(C)cc3)CC2)cc1`, the “activity change, negative = inhibition” value was inactive: -21.7%.

Regarding `CCN1CCN(C(c2ccccc2)c2c(O)cc(C)n(Cc3ccco3)c2=O)CC1` (centres undefined), the “activity change, negative = inhibition” value was inactive: -12.3%.

In the case of `N#C/C(=C/c1ccc(Cl)cc1Cl)c1nc2ccccc2c(=O)[nH]1`, the “activity change, negative = inhibition” value was inactive: -9.08%.

Regarding `COC(=O)c1c(N)n(-c2ccc(OC)c(Cl)c2)c2nc3ccccc3nc12`, the “activity change, negative = inhibition” value is inactive: -2.75%.

Turning to `COc1ccc(-c2nnc3c4ccccc4c(-c4ccccc4)nn23)cc1`, the “activity change, negative = inhibition” value is inactive: -4.27%.

As to `O=C(Nc1ccccc1F)c1ccc(-c2ccccc2)s1`, the “activity change, negative = inhibition” value is inactive: 14.9%.

For the compound `CCN(CC)C(=O)c1sc2c(c1C)c(=O)n(-c1ccc(Cl)c(Cl)c1)c(=O)n2CC(=O)Nc1cccc(OC)c1`, the “activity change, negative = inhibition” value was inactive: 0%.

In the case of `O=C(Nc1ccc(F)cc1Cl)C1Cc2ccccc2N1C(=O)c1ccccc1` (centres undefined), the “activity change, negative = inhibition” value is inactive: -2.75%.

Regarding `O=C(CCn1nc(-c2ccc(Cl)cc2)c2ccccc2c1=O)Nc1ccc(OC(F)(F)F)cc1`, the “activity change, negative = inhibition” value is inactive: -16.7%.

For the compound `CC(=O)c1cccc(NC(=O)c2nc3ccccc3nc2N2CCCCC2)c1`, the “activity change, negative = inhibition” value is inactive: -21.4%.

For the compound `COc1ccc(OC)c(CNC(=O)C2CCN(c3ncnc4c3nc3n4CCCCC3)CC2)c1`, the “activity change, negative = inhibition” value was inactive: -3.95%.

For `CN1C(=O)C2(c3ccccc31)N(c1ccc(F)c(Cl)c1)C(=O)CS2(=O)=O` (centres undefined), the “activity change, negative = inhibition” value is inactive: -9.49%.

Take `COC(=O)c1cc(S(=O)(=O)NCC2CCN(Cc3ccccc3F)CC2)c[nH]1`: the “activity change, negative = inhibition” value was inactive: -20.2%.

As for `Cc1cc(C)c2c(n1)nn1c(C)c(CCC(=O)NCc3ccc(Cl)cc3)c(C)nc21`, the “activity change, negative = inhibition” value was inactive: 4.8%.

Turning to `O=C(Nc1cc(F)ccc1F)c1cc2nc(-c3ccco3)cc(C(F)(F)Cl)n2n1`, the “activity change, negative = inhibition” value was inactive: -2.08%.

For the compound `CCC(=O)N1CCc2cc(S(=O)(=O)CCC(=O)N3CCN(c4ccc(C(C)=O)cc4)CC3)ccc21`, the “activity change, negative = inhibition” value is inactive: -20.3%.

Turning to `CCOc1ccc(-c2cn3c(n2)sc2cc(C(=O)NCCc4ccc(OC)c(OC)c4)ccc23)cc1`, the “activity change, negative = inhibition” value is inactive: -1.87%.

Take `Cc1ccc(C2=NN(CC(=O)NCCc3ccc(Cl)cc3)C(=O)CC2)cc1`: the “activity change, negative = inhibition” value is inactive: -19%.

For `COc1ccc(CCNC(=O)CCn2c(=O)c3cccn3c3cccnc32)c(OC)c1OC`, the “activity change, negative = inhibition” value was inactive: -3.7%.

Take `Cc1cccc(NC(=O)N2CCC(n3c(C)nc4cccnc43)CC2)c1`: the “activity change, negative = inhibition” value was inactive: 16%.

For the compound `O=C(CSc1nccn1Cc1ccccc1)Nc1ccc2c(c1)OCO2`, the “activity change, negative = inhibition” value is inactive: 2.91%.

For the compound `CCOc1cc(C(=O)NCCc2csc(-c3ccc(C)cc3)n2)cc(OCC)c1OCC`, the “activity change, negative = inhibition” value was inactive: -13.5%.

Take `CN(C(=O)c1cc2c(=O)n3ccccc3nc2n1C)c1ccccc1`: the “activity change, negative = inhibition” value is inactive: 83.4%.

For `CC(=O)Nc1nnc(SCc2cc(=O)c3cccc(Cl)c3[nH]2)s1`, the “activity change, negative = inhibition” value is inactive: -6.57%.

As for `CCOc1ccc(CCNC(=O)Cn2nnc(-c3ccc(C(F)(F)F)cc3)n2)cc1OCC`, the “activity change, negative = inhibition” value was inactive: -0.523%.

Turning to `Cn1cc(CCCC(=O)NCc2ccccc2Cl)c2ccccc21`, the “activity change, negative = inhibition” value was inactive: 1.88%.

Regarding `CCOC(=O)c1c(NC(=O)CSc2nc(-c3ccccc3)cc(C(F)(F)F)n2)sc(C)c1C`, the activity change, negative = inhibition is inactive: -23.2% [at 11.5 µM].

Turning to `CCOc1ccc(OCC)c(Nc2cc(C)nc3nc(-c4ccco4)nn23)c1`, the “activity change, negative = inhibition” value was inactive: -3.8%.

On to `CC(=O)N1c2ccc(S(=O)(=O)N3CCCCCC3)cc2CC1C(=O)NCc1ccccc1F` (centres undefined), for which the “activity change, negative = inhibition” value is inactive: -24.2%.

For the compound `O=C(c1ccc([N+](=O)[O-])cc1)N1CCN(c2ccc(Nc3ccccc3)nn2)CC1`, the “activity change, negative = inhibition” value is inactive: -24.6%.

In the case of `CCOc1ccc(CCNC(=O)CN2C(=O)c3cccnc3Oc3ccc(Cl)cc32)cc1`, the “activity change, negative = inhibition” value was inactive: -6.44%.

As for `Cc1ccc(CNc2ccc(-c3nc(-c4ccccn4)no3)cc2[N+](=O)[O-])cc1`, the “activity change, negative = inhibition” value is inactive: 29.3%.

Consider `CCCCN(CCCC)CCNC(=O)c1cn(C)c2ccc(S(=O)(=O)N3CCCC3)cc2c1=O`, for which the “activity change, negative = inhibition” value was inactive: -1.69%.

For the compound `COc1ccc(OC)c(NC(=O)N2c3ccccc3Sc3ccccc32)c1`, the “activity change, negative = inhibition” value was inactive: -35.6%.

With `Cc1ccc(OCc2nc(-c3ccc(C(=O)N4CCN(c5ccccc5)CC4)cc3)oc2C)cc1`, the activity change, negative = inhibition was inactive: 56.7% [at 11.5 µM].

With `O=C(NCc1ccccc1Cl)c1ccc(Nc2nc3ccccc3n3nnnc23)cc1`, the “activity change, negative = inhibition” value is inactive: 20%.

Consider `Cc1nn(CCC(=O)N2CCN(c3ccccc3)CC2)c(C)c1S(=O)(=O)N1CCCC1`, for which the “activity change, negative = inhibition” value is inactive: -26.7%.

`CCc1cnc2c(c1SCC(=O)N1CCC(C)CC1)c(=O)n(C)c(=O)n2C`: the “activity change, negative = inhibition” value was inactive: -20.3%.

On to `Cc1c(NC(=O)Nc2ccc(F)c(Cl)c2)c(=O)n(-c2ccccc2)n1C`, for which the “activity change, negative = inhibition” value is inactive: -12.5%.
